According to patent US12338279B2, “Selective and potent inhibitory antibodies of myostatin activation” (SCHOLAR ROCK, INC., priority 2022, dated 2025):

Key:
[1] = system: biotinylated murine pro-myostatin; assay: Biacore 8k SPR binding affinity, murine pro-myostatin; design: species or system mouse
From the text: (§1) The Biacore™ 8 k SPR system was utilized to evaluate the binding affinity of myostatin antibodies to biotinylated human, murine, and cyno pro-myostatin. Biotin CAPture kit and sensor chips (Cytiva) were utilized in these experiments to immobilize the various antigens, followed by flowing a range of concentrations of each of the test antibodies.

[2] = system: dexamethasone-induced muscle atrophy in C57BL6 male mice; assay: Dexamethasone-induced muscle atrophy mouse model; type: in vivo
From the text: To evaluate in vivo efficacy of the novel myostatin-selective inhibitors disclosed herein, the ability of the antibodies to preserve lean muscle mass was examined in a dexamethasone-induced atrophy mouse model. An excess of glucocorticoids directly stimulates myostatin production via interactions with a glucocorticoid response element in the myostatin promoter, thus inducing loss of muscle mass. As shown herein, antibodies of the disclosure prevented glucocorticoid-induced muscle atrophy.
C57BL6 male mice (n=8) at 13-14 weeks of age were given normal drinking water or water containing dexamethasone at a concentration of 2.5 mg/kg (17.5 grams dexamethasone per liter of drinking water) to induce atrophy. […] Body weight was measured daily. Body composition was measured by qNMR to determine lean mass pre-dosing, at day 7, and at day 14. After 14 days of dexamethasone exposure, the animals were terminated, and body weight and gastrocnemius weight were measured. Terminal blood for each animal was also collected.
C57BL6 male mice (n=8) at 13-14 weeks of age were given normal drinking water or water containing dexamethasone at a concentration of 2.5 mg/kg to induce atrophy. Mice were dosed at day 1 and day 7 with vehicle (PBS), IgG control (“hIgG”) or different doses of the test antibodies, as shown in Table 13. Muscle mass at days −1, 6 and 13 was measured using qNMR. At the end of the study (day 14), serum from each animal was collected and changes in body weight, body composition (qNMR), left and right gastrocnemius weight, and left and right quadriceps weight were measured. Statistical analysis was performed by ANOVA (Dunnett's multiple comparison test).
In a third experiment, antibody doses ranging from 0.3 mg/kg to 10 mg/kg were compared for their effectiveness in attenuating dexamethasone-induced atrophy. C57BL6 male mice (n=8) at 13-14 weeks of age were given normal drinking water or water containing dexamethasone at a concentration of 2.5 mg/kg to induce atrophy. Mice were dosed at day 1 and day 7 with vehicle (PBS), human IgG control (“hIgG”) or different doses of the test antibodies, as shown in Table 14 below. qNMR was used to measure muscle mass at days-1, 6 and 13. At day 14 the study ended, serum was collected and changes in body composition (qNMR), left and right gastrocnemius weight, and left and right quadriceps weight were determined. Circulating myostatin was measured in the serum of a terminal bleed taken at day 14. Statistical analysis was performed by ANOVA (Dunnett's multiple comparison test).
In a fourth experiment, antibodies Ab109 and Ab133 were compared to control human IgG and Ab2 in the same protocol as described above.

[3] = AC-SINS self-interaction (aggregation behavior); type: physicochemical; settings: cutoff shift >5 nm in plasmon wavelength
Experimental: The antibodies were tested for aggregation behavior by affinity capture self-interaction nanoparticle spectroscopy (AC-SINS). Gold nanoparticles were coated with polyclonal antibodies that are specific for human monoclonal antibodies and the monoclonal antibodies are captured by the conjugates. The polyvalency of the monoclonal antibody conjugates amplifies the attractive self-interactions, i.e., aggregation between the adsorbed antibodies. This leads to reduced inter-particle separation distances and is detected by a change in color of the gold colloid solution, which was quantified by a change in the wavelength of maximum absorbance (plasmon wavelength). Plasmon wavelength of 530 nm was used as the reported value for unaggregated gold nanoparticles. Antibodies with a tendency to self-aggregate shift the plasmon wavelength toward the red end of the spectrum. A shift of greater than 5 nm (i.e., >5 nm) in plasmon wavelength was used as the cutoff indicative of self-interacting antibodies.

human pro-myostatin = assay: SEC-MALS binding stoichiometry; settings: full-length mAb
Experimental: A combination of size exclusion chromatography and multi-angle light scattering (SEC-MALS) was used to determine the approximate mass and therefore the oligomeric state of the antibodies and their stoichiometry of binding to human promyostatin. The monoclonal antibody (mAb) or its Fab fragment was mixed with 50 μg of human pro-myostatin at a ratio of 1:1, 2:1 or 3:1 (antibody to antigen) for at least 24 hours at room temperature for immune complexes to form, filtered and injected into an analytical SEC column (Waters HPLC with a Superdex 200 10/300), flowed through a refractive index detector and then a miniDAWN® multi-angle light scattering detector to determine the mass. A full-length human-pro-myostatin with an N-terminal His6 tag (SEQ ID NO: 941) was used to express pro-myostatin in HEK cells. The signal peptide present in the construct is cleaved during biosynthesis. The resulting recombinant human pro myostatin was purified using the His6 tag (SEQ ID NO: 941) and used for the experiment.

[4] = system: biotinylated human pro-myostatin; assay: Biacore 8k SPR binding affinity, human pro-myostatin
From the text: as §1

total myostatin in serum = assay: Circulating total myostatin in serum (acidification ELISA), dexamethasone model; type: in vivo, mouse; settings: as compared to apitegromab
From the text: Briefly, serum samples were acidified at low pH (e.g., pH ˜2.5) to dissociate the bound antibody from the immune complex and to convert all myostatin in the sample to the active form of growth factor (i.e., mature myostatin). Samples were then neutralized and assayed for the presence of mature myostatin on ELISA plates coated with anti-mature myostatin antibodies as capture reagents.

[5] = target: T1, biotinylated cyno pro-myostatin (Macaca fascicularis, UniProt Q95J86); assay: Biacore 8k SPR binding affinity, cyno pro-myostatin; design: species or system cynomolgus monkey
T1 construct: biotin (label)
From the text: as §1

[6] = input ratio mAb:pro-myostatin 1:1, peak 1
[7] = input ratio mAb:pro-myostatin 1:1, peak 2

Row | Molecule | Ka [1] [M⁻¹ s⁻¹] | Kd (1/s) [1] [s⁻¹] | body weight loss in dexamethasone treated mice ([2]; doses 0.3-10 mg/kg on day 1 and day 7, dose as in the words, FIG. 7A, FIG. 10A) | lean mass by qNMR in dexamethasone treated mice ([2]; doses 0.3-10 mg/kg, dose as in the words, FIG. 7B, FIG. 10B) | aggregation behavior by AC-SINS [3] | SEC-MALS Result (human pro-myostatin; [6]) [kDa] | SEC-MALS Result (human pro-myostatin; [7]) [kDa] | Ka [4] [M⁻¹ s⁻¹] | Kd (1/s) [4] [s⁻¹] | accumulation of total or latent myostatin in serum samples from dosed subjects (total myostatin in serum) | Ka [5] [M⁻¹ s⁻¹] | Kd [5] [s⁻¹] | Kd [1] [nM] | body weight of dexamethasone treated mice ([2]; 3 mg/kg/day, FIG. 6A, FIG. 9A)
1 | Ab133: anti-pro/latent myostatin antibody; CDRs in Tables 2d-f, variable domains Table 3, chains Table 4 (antibody) heavy: EVQLVESGGGLVQPGGSLRLSCAASGFTFSSYGMSWVRQAPGKGLELVASFTGSGGAYYPDSVKGRFTISRDNAKNSLYLQMNSLRAEDTAVYYCARDLLIRFLEWSHYYGMDVWGQGTTVTVSSASTKGPSVFPLAPCSRSTSESTAALGCLVKDYFPEPVTVSWNSGALTSGVHTFPAVLQSSGLYSLSSVVTVPSSSLGTKTYTCNVDHKPSNTKVDKRV[human IgG4 Fc with S228P (EU numbers) left out] light: DIVMTQSPLSLPVTPGEPASISCRSSQSLLHSSGHNFLHWYLQKPGQSPQLLIYEVSNRVSGVPDRFSGSGSGTDFTLKISRVEAEDVGVYYCQQQTQYPGTFGGGTKVEIKRTVAAPSVFIFPPSDEQLKSGTASVVCLLNNFYPREAKVQWKVDNALQSGNSQESVTEQDSKDSTYSLSSTLTLSKADYEKHKVYACEVTHQGLSSPVTKSFNRGEC | 3.01e+06 | 0.000162 | prevented dexamethasone-induced weight loss | attenuated the loss of lean mass | did not display aggregation behavior | 405 | 302.9 | 2.84e+06 | 0.000116 | reduced accumulation of circulating latent myostatin | – | – | – | –
2 | Ab108: anti-pro/latent myostatin antibody; CDRs in Tables 2d-f, variable domains Table 3, chains Table 4 (antibody) heavy: EVQLVESGGGLVQPGGSLRLSCAASGSAFSSYGMSWVRQAPGKGLELVASINSNGGSTYYPDSVKGRFTISRDNAKNSLYLQMNSLRAEDTAVYYCARDLLVGFLQWSHYYGMDVWGQGTTVTVSSASTKGPSVFPLAPCSRSTSESTAALGCLVKDYFPEPVTVSWNSGALTSGVHTFPAVLQSSGLYSLSSVVTVPSSSLGTKTYTCNVDHKPSNTKVDKRV[human IgG4 Fc with S228P (EU numbers) left out] light: DIVMTQSPLSLPVTPGEPASISCRSSQSLLHSSGHNFLHWYLQKPGQSPQLLIYEVSNRVSGVPDRFSGSGSGTDFTLKISRVEAEDVGVYYCMQQTQYPPTFGGGTKVEIKRTVAAPSVFIFPPSDEQLKSGTASVVCLLNNFYPREAKVQWKVDNALQSGNSQESVTEQDSKDSTYSLSSTLTLSKADYEKHKVYACEVTHQGLSSPVTKSFNRGEC | 8.42e+06 | 0.00183 | – | – | did not display aggregation behavior | – | – | 5.92e+06 | 0.00105 | – | 6.39e+06 | 0.00102 | – | –
3 | Ab104: anti-pro/latent myostatin antibody; CDRs in Tables 2d-f, variable domains Table 3, chains Table 4 (antibody) heavy: EVQLVESGGGLVQPGGSLRLSCAASGSAFSSYGMSWVRQAPGKGLELVASINSNGGSTYYPDSVKGRFTISRDNAKNSLYLQMNSLRAEDTAVYYCARDLLVKFLSWSHYYGMDVWGQGTTVTVSSASTKGPSVFPLAPCSRSTSESTAALGCLVKDYFPEPVTVSWNSGALTSGVHTFPAVLQSSGLYSLSSVVTVPSSSLGTKTYTCNVDHKPSNTKVDKRV[human IgG4 Fc with S228P (EU numbers) left out] light: DIVMTQSPLSLPVTPGEPASISCRSSQSLLHSSGHNFLHWYLQKPGQSPQLLIYEVSNRVSGVPDRFSGSGSGTDFTLKISRVEAEDVGVYYCMQQTQYPPTFGGGTKVEIKRTVAAPSVFIFPPSDEQLKSGTASVVCLLNNFYPREAKVQWKVDNALQSGNSQESVTEQDSKDSTYSLSSTLTLSKADYEKHKVYACEVTHQGLSSPVTKSFNRGEC | 3.58e+06 | 0.000518 | – | – | did not display aggregation behavior | – | – | 3.82e+06 | 0.000381 | – | 4.21e+06 | 0.000322 | – | –
4 | Ab105: anti-pro/latent myostatin antibody; CDRs in Tables 2d-f, variable domains Table 3, chains Table 4 (antibody) heavy: EVQLVESGGGLVQPGGSLRLSCAASGSAFSSYGMSWVRQAPGKGLELVASIGGTGATYYPDSVKGRFTISRDNAKNSLYLQMNSLRAEDTAVYYCARDLLVRFLEWGHYYGMDVWGQGTTVTVSSASTKGPSVFPLAPCSRSTSESTAALGCLVKDYFPEPVTVSWNSGALTSGVHTFPAVLQSSGLYSLSSVVTVPSSSLGTKTYTCNVDHKPSNTKVDKRV[human IgG4 Fc with S228P (EU numbers) left out] light: DIVMTQSPLSLPVTPGEPASISCRSSQSLLHSSGYNFLHWYLQKPGQSPQLLIYAASSRAPGIPDRFSGSGSGTDFTLKISRVEAEDVGVYYCMHGGQGPTFGGGTKVEIKRTVAAPSVFIFPPSDEQLKSGTASVVCLLNNFYPREAKVQWKVDNALQSGNSQESVTEQDSKDSTYSLSSTLTLSKADYEKHKVYACEVTHQGLSSPVTKSFNRGEC | 5.99e+06 | 0.000276 | – | – | did not display aggregation behavior | 500 | 298.9 | 4.89e+06 | 0.000247 | – | – | – | 0.46 | maintained the body weight of the dexamethasone treated mice to a greater extent than Ab2
